Binding signal data for 14 molecules are collected here from publication PMC12136788.

The list shows a part of the results.

The chains are these.
T1: UNK ZnF1-3 (human, UniProt Q9C0B0 31-174)
T1 sequence: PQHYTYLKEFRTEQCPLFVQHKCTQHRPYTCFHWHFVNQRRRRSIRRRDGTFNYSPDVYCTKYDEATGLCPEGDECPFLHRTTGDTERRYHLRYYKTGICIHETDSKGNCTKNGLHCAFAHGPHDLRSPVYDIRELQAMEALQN

B1: chr16:2814526:2814527:+_ENSG00000167978_ENST00000301740|hu_hu|motif|central (ssRNA)
RNA: GGGAGUUCUACAGUCCGACGAUCCUCAGAAGAAAAUCCAGUAUUCAUUUCUGUACCAAGUGGGCCUGAGUUUCUAAAUUCGGAAGGUGAUCCAAAGCUGUUCUCCCUGAGUGGGGAGUUAGACAGUUCUUUAUGUUCUGGAGACAACAGAGGAUUGAGCAUCA
B2: 90591247_90591594_633_CDS_ENSMUSG00000008200_ENSMUST00000013759|mouse|control|control (ssRNA)
RNA: GGGAGUUCUACAGUCCGACGAUCUAUCUCCGCUAGGAAGUUGGCCAGUGUGCUGUCAAUGUCAGUGGCCUGGUUUCCGUUGGCCUCUUUGGAUUGGGCUGUUUUCUCAGACACAUCACUCUCAUCGUCAUCGCUGUCAGCAUACAACAGAGGAUUGAGCAUCA
B3: chr6:50807893:50807894:+_ENSG00000008196_ENST00000393655|hu_hu|FALSE|FALSE (ssRNA)
RNA: GGGAGUUCUACAGUCCGACGAUCCUCAGAGACGGCUUUGGCGGGAAACUCCGUUUCGCAAAUGUACCCAAAAUCCCUAGCUAAGUGAACAGCUUCUCCUUCCACCAGGGAGGUGAGUAACGUGACAUUUGCUGCUUUGCGCCUCAACAGAGGAUUGAGCAUCA
B4: chr3:89559821:89559822:-_ENSMUSG00000027950_ENSMUST00000029562|mus_mus|motif|central (ssRNA)
RNA: GGGAGUUCUACAGUCCGACGAUCCCCAGCACAGCCCUGCCUACCUUUAUUCCCACAGUGUAAAUGCUGGGAGCAGGUUCGGAGAUGGGCGCUGUUUGCCUGAUAUGUUCAACAGGAUACGGAAAGGAGCUGGACAAACUGUUCCAACAGAGGAUUGAGCAUCA
B5: chr1:66463027:66463028:+_ENSMUSG00000015222_ENSMUST00000114013|mus_mus|mus_mus_mus_hu_True|18_38 (ssRNA)
RNA: GGGAGUUCUACAGUCCGACGAUCUUUUCUUUCAGGAGUGGAAAUUCUGCCUCUCCCGGUUUUAAAAGGCUUUUCUUUUCUAUGUUUCUCAAGAGAUGGUCUCCGAGCUUCCUUUUCAGCUCUCUCCUCUUUAGGAAUAGUUUCCAACAGAGGAUUGAGCAUCA
B6: 136505900_136511780_517_3pUTR_ENSG00000144224_ENST00000272638|human|control|control (ssRNA)
RNA: GGGAGUUCUACAGUCCGACGAUCGGAAUUCCACUGUCUCCAAUAAAGAAACUGGAUGGAACACACACUACAGGAUAGAUUUGUGAAAACUGUAGGCAGGCUUCACUUUUGGUAUCGAUUUUAAUAGCAACAAAACUGUUUGAACAACAGAGGAUUGAGCAUCA
B7: chr18:33362079:33362080:-_ENSMUSG00000024378_ENSMUST00000025236|mus_hu|FALSE|FALSE (ssRNA)
RNA: GGGAGUUCUACAGUCCGACGAUCAUUUCAUGUCUUGUUUAGCAUGUAUUUCAGGGCUCACUUUACCCAUAUUAACAACAACAAAACAGUAGACACAGGAAUACUAACACAUAAACAACUAACAUUAAACACGGAAAUGGAUUUCAACAGAGGAUUGAGCAUCA
B8: chr8:108204030:108204031:+_ENSMUSG00000005698_ENSMUST00000005841|mus_hu|motif|central (ssRNA)
RNA: GGGAGUUCUACAGUCCGACGAUCCUUCUUGGCGGGUGGUGGGGCUGGGGUCACAGGCUGAGGCUCUGGCUCAGGUUCAAUUUCGGCGGCAGGCUCCUCCUCAUCCUCAUUGUCGUCCAGAUCUGGUUCAGCAUUUUCACUGUCCAACAGAGGAUUGAGCAUCA
B9: chr7:44244176:44244177:+_ENSG00000106636_ENST00000223369|hu_mus|hu_hu_hu_mus_False|1_108 (ssRNA)
RNA: GGGAGUUCUACAGUCCGACGAUCACUAUCAUUCCGGACGUAGACAUGGCAAAGAUACUCUUGUUCUUUGACAGAAGCUCUGCUGCCUUUCCCCGAGCGUUCCACAAUCAGUUGACUUGUAAAGGUCAUGAAUUCCUGAACGCUCAACAGAGGAUUGAGCAUCA
B10: chr5:23655024:23655025:+_ENSMUSG00000028986_ENSMUST00000030841|mus_mus|FALSE|FALSE (ssRNA)
RNA: GGGAGUUCUACAGUCCGACGAUCAUUGUAGCAAUCCAUUCGCUUUAUGGGGAAAAGCUGAGAACCUCCCAAAAUGUAUACUACAUUGUCCCAAAACACACAUGCUGCAUCUCUUCGUUUUUCAAAGGGGCAGCGAAUGUCUGUCAACAGAGGAUUGAGCAUCA
B11: chr19:16212804:16212805:+_ENSG00000167460_ENST00000300933|hu_mus|hu_hu_hu_mus_False|48_98 (ssRNA)
RNA: GGGAGUUCUACAGUCCGACGAUCAACAAUUCUGGAGAAGAACAUCAAUGUAACAUGGAACAGCAUUAAAGCUCAGUCAGAAGGCACGUGGGUAAUUAUGAUCACCCCAGCAUUCUCGCUUGGAAUGCUUAAAGACAAUCUGUUCAACAGAGGAUUGAGCAUCA
B12: chr7:135832278:135832279:+_ENSMUSG00000042105_ENSMUST00000118605|mus_mus|motif|central (ssRNA)
RNA: GGGAGUUCUACAGUCCGACGAUCCUGCUGCCCUAAUCAUUUUUGUUUUCCCGCCACUGUGGCAAACCUUCCUUCCAUACGGUAAAAACAAAAAUUGCCAAAACUACAUGCAGCCCAACCACGGAGACAAUGGUCGCAUAAAAACAACAGAGGAUUGAGCAUCA
B13: 43049586_43049964_324_5pUTR_ENSMUSG00000036002_ENSMUST00000107956|mouse|control|control (ssRNA)
RNA: GGGAGUUCUACAGUCCGACGAUCCUGCACGUGGCGCAUGAAGCCCCCCUUGGGUCAGGGGGGCCCCCCCACACGGCCUUUAUGCUGGGCCUGGGCUGGGGGGCCUGGGGACAUCCCGAUGAAGAAGCCUCAAGCCUGGGCGCGCAACAGAGGAUUGAGCAUCA
B14: chr13:58910217:58910218:+_ENSMUSG00000055254_ENSMUST00000079828|mus_mus|FALSE|FALSE (ssRNA)
RNA: GGGAGUUCUACAGUCCGACGAUCGCUGUUAGGUUCCAACCUCGGGAAUGCCACGAUGCCUGGAGAAGGCUCAGUACACCAAAUCCUAGCGGAACUGCAUUUGCAGGACGUCGGGCAGGCGAGAGAGGCCCUCCAGAAGCCCAACAACAGAGGAUUGAGCAUCA

For the assay, the target named is T1, UNK ZnF1-3. Kind of assay: nsRBNS (natural sequence RNA bind-n-seq); RBNS binding buffer (assumed for nsRBNS): 25 mM Tris pH 7.5, 150 mM KCl, 3 mM MgCl2, 0.01% Triton X-100, 500 ug/ml BSA, 20 U/ml SUPERase-In, 4 C; UNK is unkempt and MSI1 is Musashi-1; names of the RNAs are library labels; protein concentration not given here; high values mean tight binding.
On to B1, for which the binding signal stood at 0.942 enrichment R. Consider B2, for which the binding signal was found to be 0.706 enrichment R. The same measure for B3: 0.753 enrichment R.

The molecule B4 yielded a binding signal of 0.847 enrichment R.

For the molecule B5, the binding signal is 0.347 enrichment R. The same measure for B6: 1.44 enrichment R; for B7: 0.858 enrichment R. The same measure for B8: 0.667 enrichment R. The same measure for B9: 0.559 enrichment R; for B10: 0.832 enrichment R; for B11: 1.18 enrichment R.

In the case of B12, the binding signal was 1.46 enrichment R. The same measure for B13: 0.675 enrichment R; for B14: 0.564 enrichment R.
